From paper PMC4336329 (PLoS ONE, 2015)
The whole screen tested about 310,000 compounds, of which about 14,000 (4.5%) showed an effect of 50% or more. The effect is printed as a negative number. Some of the results follow.

Target: human ether-à-go-go-related gene (hERG) potassium channel (human, UniProt Q12809)
Assay: primary screen, population patch clamp on CHO cells stably expressing hERG
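Note: peak tail current of the secondary pulse compared with the same well before compound.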

Sequence of human ether-à-go-go-related gene (hERG) potassium channel (Q12809 whole entry, looked up): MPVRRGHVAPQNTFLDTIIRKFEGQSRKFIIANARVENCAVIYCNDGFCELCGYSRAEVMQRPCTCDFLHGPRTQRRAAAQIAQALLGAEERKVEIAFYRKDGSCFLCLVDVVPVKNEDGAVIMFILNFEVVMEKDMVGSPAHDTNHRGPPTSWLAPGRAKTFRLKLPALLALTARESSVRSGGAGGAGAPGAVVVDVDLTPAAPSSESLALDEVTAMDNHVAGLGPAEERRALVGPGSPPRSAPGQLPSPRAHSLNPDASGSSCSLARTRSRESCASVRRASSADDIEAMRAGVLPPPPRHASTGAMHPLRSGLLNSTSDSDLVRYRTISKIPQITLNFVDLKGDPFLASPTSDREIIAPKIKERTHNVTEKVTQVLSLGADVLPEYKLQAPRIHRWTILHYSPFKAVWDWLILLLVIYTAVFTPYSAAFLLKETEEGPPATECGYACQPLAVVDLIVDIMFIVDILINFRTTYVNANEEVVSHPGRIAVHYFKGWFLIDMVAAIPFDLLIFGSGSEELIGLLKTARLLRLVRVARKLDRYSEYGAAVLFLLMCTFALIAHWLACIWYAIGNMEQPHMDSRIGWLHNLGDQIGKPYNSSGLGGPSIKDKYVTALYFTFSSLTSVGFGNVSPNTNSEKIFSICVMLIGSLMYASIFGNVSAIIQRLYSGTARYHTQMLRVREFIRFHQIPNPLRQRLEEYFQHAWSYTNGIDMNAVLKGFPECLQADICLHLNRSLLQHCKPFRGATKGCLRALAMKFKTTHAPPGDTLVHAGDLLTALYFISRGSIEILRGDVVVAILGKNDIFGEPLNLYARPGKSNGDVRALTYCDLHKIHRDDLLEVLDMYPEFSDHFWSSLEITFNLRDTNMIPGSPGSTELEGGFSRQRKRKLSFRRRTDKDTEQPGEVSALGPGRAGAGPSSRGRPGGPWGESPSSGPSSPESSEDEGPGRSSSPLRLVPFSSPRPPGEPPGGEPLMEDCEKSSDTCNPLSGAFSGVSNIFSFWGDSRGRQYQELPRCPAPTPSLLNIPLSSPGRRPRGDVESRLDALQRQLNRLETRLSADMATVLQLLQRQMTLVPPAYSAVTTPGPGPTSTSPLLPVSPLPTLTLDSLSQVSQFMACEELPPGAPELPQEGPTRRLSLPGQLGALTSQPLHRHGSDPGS

SMILES | hERG current change (%, negative = inhibition) at 10uM [%]
Cc1noc(/C=C/c2ccccc2F)c1S(=O)(=O)N1CCC(C(=O)N2CCN(C)CC2)CC1 | -19.5
NC(=O)COc1ccc(C(=O)/C=C2/C(=O)Nc3ccccc32)cc1 | 14.6
N#CC(c1nc2ccccc2nc1N1CCOCC1)S(=O)(=O)c1ccccc1 (centres unmarked) | 17.9
CCOc1ccc(OCC)c(NC(=O)Nc2ccc3c(c2)N(C)C(=O)CS3)c1 | -14.7
O=C(NC1CCCCC1)C1CCN(C(=O)c2ccccc2Cl)CC1 | 22.2
O=C(CCl)NC(Cc1ccccc1)c1ccccc1 (centres unmarked) | 17.7
Cc1cccc(C(=O)C2CCN(S(=O)(=O)c3ccc(C(=O)O)cc3)CC2)c1 | -0.78
O=C(NNC(=O)c1ccc(Br)cc1)c1ccncc1 | 14.6
CCOc1ccc2c(c1)C(=NNC(=O)c1ccncc1)c1cc(OCC)ccc1-2 | 17.1
COc1cc(OC)cc(C(=O)N[C@H](C(=O)OCC(=O)Nc2ccc(C)cc2C)C(C)C)c1 | -21.2
CN(C)C(CNC(=O)c1cccc(NS(=O)(=O)c2ccc(Br)cc2)c1)c1ccco1 (centres unmarked) | -28.8
COC(=O)CCC(=O)OC1(C)C(=O)C=C2C=C(C3CC3)N(CCc3c[nH]c4ccccc34)C=C2C1=O (centres unmarked) | 9.18
CC(=O)Oc1ccc(C(=O)NC(C)CCc2ccccc2)cc1 (centres unmarked) | 9.89
CC(=O)c1csc(COc2ccccc2)n1 | 12.9
Cc1ccc(C(=O)NCc2ccc3c(c2)OCO3)c(C)c1 | 1.18
COc1cccc(C2NC(=S)NC3=C2CCc2ccccc23)c1 (centres unmarked) | -0.748
CCC1=NC(c2ccc(OC)c(OC)c2)N(O)C1(C)C (centres unmarked) | 17.8
CN1CCN(C(=O)c2ccccc2Nc2ccc(SC(F)F)cc2)CC1.Cl | -26
CC(C)c1ccccc1OCC(=O)Nc1ccc2[nH]ncc2c1 | 5.26
NS(=O)(=O)c1ccc(CCNC(=O)c2ccc(=O)[nH]c2)cc1 | 24.2
Cc1ccc(Cl)cc1NC(=O)CC1NC2CCCCC2NC1=O (centres unmarked) | 17.6
CCN(CC)CCOCCOc1cc(C)c(Cl)c(C)c1 | -44.4

SMILES | hERG current change (%, negative = inhibition) at 10uM [%]
Cn1c(=O)c2c(SCC(=O)NCC3CCCO3)nc(-c3ccccc3Cl)nc2n(C)c1=O (centres unmarked) | -35.2
CCc1c(C)[nH]n(CCC#N)c1=O | -0.107
CCOc1cc(/C=N/Nc2nc(N3CCCCC3)nc(N3CCCCC3)n2)ccc1OC(=O)c1ccco1 | 19.8
Cc1nc(N2CCCCC2)nc(N2CCCCC2)c1C=O | 5.95
Cc1ccc(S(=O)(=O)N2CCN(C(=O)CCc3nc4ccccc4c(=O)[nH]3)CC2)c(C)c1 | -25.9
O=C(C/C=N\OCc1c(Cl)cccc1Cl)Oc1ccc(Cl)cc1Cl | 4.03
Cc1csc(NC(=O)C2CCCCN2S(=O)(=O)c2ccccc2)n1 (centres unmarked) | 0.799
COc1ccccc1OCC(O)Cn1nc(C)cc1C (centres unmarked) | 9.76
CCOC(=O)c1cc(-c2ccc(/C=N\n3cnnc3)o2)ccc1Cl | -37.3
COc1ccc(C2c3ccc(O)cc3Oc3ncn(CCCO)c(=N)c32)cc1OC (centres unmarked) | -6.28
CCOC(=O)C1CCCN(C(=O)Cn2nc(Cc3cccnc3)c3ccccc3c2=O)C1 (centres unmarked) | -3.9
O=C1CCC([N+](=O)[O-])C(c2ccc(F)c(Br)c2)N1 (centres unmarked) | -0.459
O=[N+]([O-])c1ccc(N/N=C2\CC3CC=CC23)c([N+](=O)[O-])c1 (centres unmarked) | -29.3
CN1CCN(Cc2c(C(=O)N/N=C/c3cccc(Br)c3)nnn2-c2nonc2N)CC1 | -74.8
Cc1cc2nnc(SCC(=O)N3CCOCC3)n2c2ccccc12 | 24.2
O=C(NN1C(=O)C2C3C=CC(C4CC34)C2C1=O)c1ccc(Cl)cc1 (centres unmarked) | 10.8
CCOC(=O)C1CCCN(C(=O)c2ccc(Cl)cc2)C1 (centres unmarked) | 0.557
COc1cccc(/C=N/Nc2ccc(Cl)nn2)c1 | 11.1
Cc1ccc(CNC(=O)c2c(C)cc(=O)oc2C)cc1 | -14.6
CN(c1ccccc1)c1nccc(=O)[nH]1 | 5.75
CC(/C=N/n1c(-c2n[nH]c3c2CCC3)n[nH]c1=S)=C\c1ccco1 | 4.9
Cc1[nH]c2ccccc2c1C(=O)CSc1nc2ccccc2c(=O)n1-c1ccccc1F | 15.3
